Experimental data taken from a collection of fitness landscapes (doi:10.1126/science.1257360).
This is one part of the list.

B1: PhoQ; a variant is named by its letters at X, in order, P23837 (parent)
chain: MKKLLRLFFPLSLRVRFLLATAAVVLVLSLAYGMVALIGYSVSFDKTTFRLLRGESNLFYTLAKWENNKLHVELPENIDKQSPTMTLIYDENGQLLWAQRDVPWLMKMIQPDWLKSNGFHEIEADVNDTSLLLSGDHSIQQQLQEVREDDDDAEMTHSVAVNVYPATSRMPKLTIVVVDTIPVELKSSYMVWSWFIYVLSANLLLVIPLLWVAAWWSLRPIEALAKEVRELEEHNRELLNPATTRELTSLVRNLNRLLKSERERYDKYRTTLTDLTHSLKTPLXXLQXXLRSLRSEKMSVSDAEPVMLEQISRISQQIGYYLHRASMRGGTLLSRELHPVAPLLDNLTSALNKVYQRKGVNISLDISPEISFVGEQNDFVEVMGNVLDNACKYCLEFVEISARQTDEHLYIVVEDDGPGIPLSKREVIFDRGQRVDTLRPGQGVGLAVAREITEQYEGKIVAGESMLGGARMEVIFGRQHSAPKDE

Variants of: B1
Assay: enrichment ratio after two sorts for PhoP signalling (ratio (wild type AVST 3.29)); higher = more functional
Details: with PhoP (E. coli)

Point of comparison: MDVM, enrichment ratio 8.67. Against it:
- RIEP — lower, ≤ 0.25
- KSFA — lower, ≤ 0.25
- ENVN — lower, ≤ 0.25
- WRSE — lower, ≤ 0.25
- VIIC — lower, ≤ 0.25
- WPVQ — lower, ≤ 0.25
- SNTK — lower, ≤ 0.25
- IQNL — lower, ≤ 0.25
- DGND — lower, ≤ 0.25
- YESD — lower, ≤ 0.25
- DAMK — lower, ≤ 0.25
- PSRQ — lower, ≤ 0.25
- WEDI — lower, ≤ 0.25
- YGYK — lower, ≤ 0.25
- NSCV — lower, ≤ 0.25
- TPNP — lower, ≤ 0.25
- FSAN — lower, ≤ 0.25
- RARV — lower, 0.363
- EFNA — lower, ≤ 0.25
- IMEG — lower, ≤ 0.25
- EVFT — lower, ≤ 0.25
- TGWK — lower, ≤ 0.25
- YWMA — lower, ≤ 0.25
- QDDK — lower, ≤ 0.25
- GQKV — lower, ≤ 0.25
- KQPG — lower, ≤ 0.25
- NYTP — lower, ≤ 0.25
- EWSS — lower, ≤ 0.25
- AEPL — lower, ≤ 0.25
- VNAF — lower, ≤ 0.25
- FECC — higher, 22.6
- YWMW — lower, ≤ 0.25
- QFPK — lower, ≤ 0.25
- FEEG — lower, ≤ 0.25
- PHIM — lower, ≤ 0.25
- IMDT — lower, ≤ 0.25
- YEAM — lower, 2.47
- EWSF — lower, ≤ 0.25
- FVEH — lower, ≤ 0.25
- TKYC — lower, ≤ 0.25
- ESNF — lower, ≤ 0.25
- GGWV — lower, ≤ 0.25
- TAEH — lower, 3.11
- RGAH — lower, ≤ 0.25
- TVAH — lower, 3.22
- FWTD — lower, ≤ 0.25
- MKNY — lower, ≤ 0.25
- HCNK — lower, ≤ 0.25
- YIKI — lower, ≤ 0.25
- TMGQ — lower, 5.04
- MFQT — lower, ≤ 0.25
- WMYV — lower, ≤ 0.25
- QMMY — lower, ≤ 0.25
- MPCL — lower, ≤ 0.25
- QKWY — lower, ≤ 0.25
- NFEV — lower, ≤ 0.25
- SFGH — lower, ≤ 0.25
- MMTC — lower, ≤ 0.25
- FNCN — lower, ≤ 0.25
- LSDE — lower, ≤ 0.25
- AWAF — lower, ≤ 0.25
- TWWW — lower, ≤ 0.25
- YKHC — lower, ≤ 0.25
- AMLF — lower, 6.39
- PEYL — lower, ≤ 0.25
- PSWI — lower, ≤ 0.25
- SRMI — lower, 2.61
- HTYT — lower, ≤ 0.25
- KSVH — lower, ≤ 0.25
- RGKM — lower, ≤ 0.25
- WTFS — lower, ≤ 0.25
- MRGW — lower, ≤ 0.25
- ARFP — lower, ≤ 0.25
- GDLP — lower, ≤ 0.25
- QAAK — lower, ≤ 0.25
- KTIH — lower, ≤ 0.25
- DHWV — lower, ≤ 0.25
- ISFP — lower, ≤ 0.25
- DPSP — lower, ≤ 0.25
- IQLV — lower, ≤ 0.25
- TWGW — lower, ≤ 0.25
- KDNL — lower, ≤ 0.25
- RIKY — lower, ≤ 0.25
- VLGT — lower, ≤ 0.25
- HVLL — lower, ≤ 0.25
- NDTE — lower, ≤ 0.25
- QIAR — lower, ≤ 0.25
- RAMT — lower, ≤ 0.25
- LMKI — lower, ≤ 0.25
- DHMW — lower, ≤ 0.25
- VMTP — lower, ≤ 0.25
- FTHK — lower, ≤ 0.25
- AHPV — lower, ≤ 0.25
- FHAS — lower, ≤ 0.25
- VMSR — lower, ≤ 0.25
- HKPW — lower, ≤ 0.25
- HQYG — lower, ≤ 0.25
